# Source: the supplement of paper PMC3334620
# Whole data set: some 33,000 sequences, median “E-score (-0.5 to 0.5)” near -0.043, cut for the highest 2% near 0.37. The list shows a part of the results.
# Molecular target: T1, Upc2 (UniProt Q12151)
# T1 sequence: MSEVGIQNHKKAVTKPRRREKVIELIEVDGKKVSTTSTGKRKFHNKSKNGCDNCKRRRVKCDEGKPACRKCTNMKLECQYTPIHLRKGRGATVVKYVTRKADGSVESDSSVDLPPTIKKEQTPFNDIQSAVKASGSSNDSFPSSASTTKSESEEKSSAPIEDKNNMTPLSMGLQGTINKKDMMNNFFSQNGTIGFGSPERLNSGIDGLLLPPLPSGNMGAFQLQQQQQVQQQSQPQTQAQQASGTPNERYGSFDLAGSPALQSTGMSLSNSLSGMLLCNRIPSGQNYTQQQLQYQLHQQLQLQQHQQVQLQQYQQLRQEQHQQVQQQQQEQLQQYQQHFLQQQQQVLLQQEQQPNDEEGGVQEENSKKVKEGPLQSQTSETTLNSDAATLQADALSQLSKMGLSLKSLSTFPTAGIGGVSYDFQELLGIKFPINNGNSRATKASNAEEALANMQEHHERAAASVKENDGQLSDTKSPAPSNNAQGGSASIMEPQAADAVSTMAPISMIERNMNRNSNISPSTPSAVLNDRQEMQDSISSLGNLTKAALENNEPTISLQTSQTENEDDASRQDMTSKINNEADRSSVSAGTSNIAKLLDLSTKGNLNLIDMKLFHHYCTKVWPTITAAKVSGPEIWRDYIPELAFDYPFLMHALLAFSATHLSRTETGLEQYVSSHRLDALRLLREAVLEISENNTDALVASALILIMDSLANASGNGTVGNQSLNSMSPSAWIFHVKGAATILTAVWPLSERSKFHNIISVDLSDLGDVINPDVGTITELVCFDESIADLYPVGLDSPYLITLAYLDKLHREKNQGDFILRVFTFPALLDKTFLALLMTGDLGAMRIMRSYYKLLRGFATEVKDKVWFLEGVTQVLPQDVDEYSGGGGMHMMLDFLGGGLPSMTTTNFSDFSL
# Assay: PBM E-score (8-mer binding enrichment) (E-score (-0.5 to 0.5)); higher = stronger / more preferred TF binding; most listed sequences are background and not binding sites
# Details: protein concentration: 200 nM; construct: GST-full length
# Description: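 Universal 'all 10-mer' protein binding microarrays (Agilent AMADID 015681) probed with GST-tagged S. cerevisiae TFs (full-length or DBD) made by in vitro transcription/translation (PURExpress), about 100-200 nM. Bound TF was detected with fluorescent anti-GST. Each ungapped 8-mer (which stands for itself and its reverse complement) is scored by the PBM enrichment score (E-score), a modified Wilcoxon-Mann-Whitney statistic from -0.5 to +0.5, computed with the Universal PBM Analysis Suite. Scale: above 0.35 generally sequence-specific binding.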
row,Sequence,PBM E-score
1,AGTAAGAA,0.00183
2,AAGAGAAA,-0.185
3,ACGTGTCC,-0.0289
4,CCAAACAC,-0.0449
5,GCGTGGGA,0.0201
6,AACCGCTG,0.00261
7,AATACCAG,0.00549
8,GCATTCTA,-0.0821
9,CGAAAGGA,0.113
10,AAAGCACG,0.122
11,CACCCCCA,-0.208
12,AAGACCTG,-0.16
13,AAAGCGAG,0.217
14,ATTGAGTC,-0.155
15,GTCTACGA,0.346
16,AGTTGTCC,0.0243
17,CGGAACGA,0.468
18,GTCTAACA,-0.263
19,AAATTGCA,-0.0477
20,AAACCGCA,-0.176
21,GACCCTGA,-0.141
22,CATCTATC,-0.0942

row,Sequence,PBM E-score
1,TCGGGACA,-0.103
2,AGTAGGTG,-0.361
3,CACGTTCA,0.092
4,CCCGGTTC,-0.0294
5,AGGACAAA,0.113
6,GCGCGATA,0.0909
7,TGCAGAAA,0.222
8,GATTCAGA,-0.136
9,CCCTACAG,-0.186
10,ATCTTCAC,-0.107
11,ACGCTTCA,-0.0325
12,AAACCCGT,0.103
13,CCGGCTTA,-0.245
14,ACGGTGTC,0.191
15,GACCGCTC,-0.118
16,CTCTCCAG,-0.203
17,ACATATGT,-0.184
18,AGCTCCCC,-0.178
19,CGATCTGA,-0.103
20,ACAGCGGC,-0.0328
21,ACCTCCGG,-0.243
22,AGAATCCA,-0.217

row,Sequence,PBM E-score
1,AAGATATT,-0.113
2,GTATGTTA,0.221
3,CGACTCGC,0.248
4,GATTAGTA,0.0619
5,GAGAATTA,-0.143
6,ATAACGAC,0.159
7,ACCAGACC,0.125
8,CCAACGAC,0.0191
9,GATTAATA,0.0404
10,GGGGAATA,-0.254
11,TAAAACAA,0.134
12,CGATAAAC,0.305
13,GTCTCAGA,-0.25
14,AGGCTACC,-0.191
15,ATGTTTTG,0.00718
16,CAGTACGG,0.257
17,GCGTCAGC,-0.0319
18,GCTTGCCC,-0.179
19,CGCTATAC,0.392
20,GTACCGTA,0.343
21,GATTGGGC,-0.0525
22,GGAAAACA,-0.0688

row,Sequence,PBM E-score
1,CTCTATCA,-0.26
2,CAAACGTA,0.259
3,ACTGACCT,-0.058
4,CGTTACAG,0.201
5,GTTACACA,-0.0801
6,AGGGTTCA,-0.0645
7,CTATTTTA,0.0531
8,ATCGTTAA,0.435
9,CCAACAAG,-0.23
10,AGTGGTCC,-0.123
11,CCTGGTAC,0.192
12,GTAATGTA,0.0349
13,AAGGCTAG,-0.0862
14,CGTTGGCC,-0.187
15,ACCCTGTA,-0.0196
16,ACTGTACT,0.0214
17,ATAATAGG,-0.0958
18,ATCATGTC,-0.116
19,CTCTATTA,-0.0451
20,CAGAGGGG,-0.281
